Some of the results follow.
T1: UNK ZnF1-3 (human, UniProt Q9C0B0 31-174)
T1 sequence: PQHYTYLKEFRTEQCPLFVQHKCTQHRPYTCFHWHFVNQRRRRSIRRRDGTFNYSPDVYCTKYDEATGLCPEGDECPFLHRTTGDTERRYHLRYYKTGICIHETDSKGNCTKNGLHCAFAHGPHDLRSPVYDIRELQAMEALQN

B1: chr17:65740002:65740003:+_ENSG00000130935_ENST00000581375|hu_hu|hu_hu_hu_mus_False|28_78 (ssRNA)
RNA: GGGAGUUCUACAGUCCGACGAUCAACAAAUCUUUCUUCCCUGGACGAACAGGAAGACAUAAAAGAGAAAAAAUAUAUAUCCAUCAAGUUAGGUGUGGUGGCCACACAGAGCUCCAGAGCACUUUGGGAGGUGGAUCUCUGAGUCAACAGAGGAUUGAGCAUCA
B2: chr12:123254070:123254071:+_ENSG00000139726_ENST00000280557|hu_hu|FALSE|FALSE (ssRNA)
RNA: GGGAGUUCUACAGUCCGACGAUCGAGCCGAGAUCGCACCACUGCAUUCCAGCCCAGGCAACAGUGCGAGACUCUGUCAAAAAAAAAAAAGAGAGAGAGAGAGAGAGAGAAAGUCAGUACCAAAUGACCAAAAUUUUUUAUUUGCAACAGAGGAUUGAGCAUCA
B3: 106241872_106241992_1621_CDS_ENSMUSG00000046079_ENSMUST00000060531|mouse|control|control (ssRNA)
RNA: GGGAGUUCUACAGUCCGACGAUCGUCGUUCUUGACAUCCGGGAUGUCGCUGAAGCUGCUCUCCUCCCGGACUUUCUCAAACGAGUACUCCUUCAGAGGGAUCCUGAAUAGCCAGAAGAGAGUGUAGAGGCAGAUAAAGCCGUACAACAGAGGAUUGAGCAUCA
B4: 92773732_92773852_88_5pUTR_ENSMUSG00000008398_ENSMUST00000008542|mouse|control|control (ssRNA)
RNA: GGGAGUUCUACAGUCCGACGAUCCCUGCUCACUUCCUUUACUGCAUUAUUCCCCAGGCGGUGUGCAGUCUGUGUAAACAGGCUUUUCCGCCCCGCGCCGUGCGCCCGGGCCGCGGCUGUGCGCCGGGGCUGCCCGCCCAGACCCAACAGAGGAUUGAGCAUCA
B5: chr7:54825262:54825263:-_ENSG00000132432_ENST00000352861|hu_hu|hu_hu_hu_mus_False|58_88 (ssRNA)
RNA: GGGAGUUCUACAGUCCGACGAUCCUGCCGGCUGGGCUCCACAAACUUUACCUGAUCAUCCAUGUUUGUUGGAUGGCACACCUAAAACGUAGAGACACGUAGCUCAGGAGAGAACCGAGCCCAACGGAACCGGAAGCUGGCAACCAACAGAGGAUUGAGCAUCA
B6: chr16:69481128:69481129:+_ENSG00000103018_ENST00000515314|hu_hu|motif|central (ssRNA)
RNA: GGGAGUUCUACAGUCCGACGAUCCAACGGAUGGAUAUCACCAAUGUAGUACUGCUUUAGCAUUUCUCUGGCAUCAGAAGAGUGUCCGGCAUCUUCAAAGCUUUCACUUGCAUCUACACCAGCUUGUUCCAGCAGAACCUCUUCCAACAGAGGAUUGAGCAUCA
B7: 97366611_97369984_2373_CDS_ENSG00000059573_ENST00000371224|human|control|control (ssRNA)
RNA: GGGAGUUCUACAGUCCGACGAUCUCGCAGCAGCCACUUAGUAGUAAGCAGUCCCUCAAGUCCUACUGGUCCCCGGGCGUGGAUUCUCGAUGUACUGAUUCCCACUUCAGCUCCCAGUCCAAAGCGGUAACCAUCAGAAAAGCGCAACAGAGGAUUGAGCAUCA
B8: chr22:19452774:19452775:-_ENSG00000070010_ENST00000399523|hu_hu|FALSE|FALSE (ssRNA)
RNA: GGGAGUUCUACAGUCCGACGAUCCUUUUCAUUAUAGUUGAUGGCAAUCACAUCCCCGGUGGUCAGACAGGCAAAGUUCCUAAGUGCGUUUUCUAAUACGGCUUUGGGGUUGGUGAUGUCCAGGAAGUCAGGGCUCUGAGGUUGCAACAGAGGAUUGAGCAUCA
B9: 87448077_87448931_1292_CDS_ENSG00000140948_ENST00000268616|human|control|control (ssRNA)
RNA: GGGAGUUCUACAGUCCGACGAUCUCGAGCCACACCACUGCUGGUGACCAGCGGCGGGGCCGAGGGGUUCAGGCACCGUCUCUCUGACUUCUCCUUUUCCAGCUCCAGCUGGGUCUUGAGCUUCUUCUUUGCCCCCAUGGUAAGCAACAGAGGAUUGAGCAUCA
B10: chr5:67447025:67447026:+_ENSMUSG00000037736_ENSMUST00000038188|mus_mus|FALSE|FALSE (ssRNA)
RNA: GGGAGUUCUACAGUCCGACGAUCCUGCACCUAUAAGGAACCCACAUGCAAAGAACCGUCUAGCAUGGAAAUAAAUAAUUGCUAGUCAUACUCCAUAAGACACAGAAAAAGUUAUUGCUUACAUAACAGAGAAACACCUACCUGCAACAGAGGAUUGAGCAUCA
B11: 59262636_59274477_945_CDS_ENSMUSG00000025234_ENSMUST00000171975|mouse|control|control (ssRNA)
RNA: GGGAGUUCUACAGUCCGACGAUCCAGGCGCAUAACUGUGUUGUCAUCCACUAAGAUAUCACAACCAUGCGCAGGACACGAAAUAGUCUGCCCCAUGCCUUCCUCCAUUAUUUUUGUAGUUAAAUAUUCACUCCAGCACUGCAUCAACAGAGGAUUGAGCAUCA
B12: 158618557_158618677_5722_3pUTR_ENSG00000272047_ENST00000607778|human|control|control (ssRNA)
RNA: GGGAGUUCUACAGUCCGACGAUCCUCGAAACACUCUCAUAAUAAGCAGAUGAUAUCUUUAUUUGGCCCUCCAAAAAGUCAACAAGCAAAAUGACUUGAGGAUCCAAAAAACUGUUACCAUGACCUUUGCUCUUGAUCAAUCUGCAACAGAGGAUUGAGCAUCA
B13: chr7:63234579:63234580:-_ENSMUSG00000047037_ENSMUST00000052204|mus_mus|motif|central (ssRNA)
RNA: GGGAGUUCUACAGUCCGACGAUCCCAACCAUCGGGAGCUCUGUGCUGCAGAGGUCUGGACCUCACCCUGGUGCAAAGCCGGUUGUCCACUGGAUUAUUAGUUCACAGGCAAUGCUCACCGAGAGUCUCUUCUACGUGACAUGUCAACAGAGGAUUGAGCAUCA
B14: chr4:76703833:76703834:+_ENSG00000138768_ENST00000264904|hu_mus|motif|central (ssRNA)
RNA: GGGAGUUCUACAGUCCGACGAUCAUUGGAAUUGUUGGUUUUUAACAAGUUUUGAAGUAAAAUCAAACAAUCUUCCACGGCGGUACCUCCGUCACUGUUCCCCUCCUCUGUAAUAAUGUCCAGCAGUCGCUCAAAAGCAUUUUCCAACAGAGGAUUGAGCAUCA

target: T1, UNK ZnF1-3; experiment: nsRBNS (natural sequence RNA bind-n-seq); RBNS binding buffer (assumed for nsRBNS): 25 mM Tris pH 7.5, 150 mM KCl, 3 mM MgCl2, 0.01% Triton X-100, 500 ug/ml BSA, 20 U/ml SUPERase-In, 4 C; UNK is unkempt and MSI1 is Musashi-1; names of the RNAs are library labels; protein concentration not given here; high values mean tight binding

Row | Binder | binding signal
1 | B1 | 2.33 enrichment R
2 | B2 | 1.61 enrichment R
3 | B3 | 1.04 enrichment R
4 | B4 | 0.889 enrichment R
5 | B5 | 1.07 enrichment R
6 | B6 | 1.12 enrichment R
7 | B7 | 1.09 enrichment R
8 | B8 | 1.27 enrichment R
9 | B9 | 0.87 enrichment R
10 | B10 | 1.72 enrichment R
11 | B11 | 0.994 enrichment R
12 | B12 | 1.03 enrichment R
13 | B13 | 1.2 enrichment R
14 | B14 | 0.723 enrichment R

Reference: PMC12136788
